From PubChem BioAssay (NCI)
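The compound was tested at five concentrations on cells cultured in 96-well plates, with a 48-hour exposure period. Abbreviation: GI50, concentration required for 50% inhibition of growth. TGI marks complete inhibition of growth.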

System: NCI-H322M lung
Assay: inhibition of tumour cell growth, NCI panel, 48 h

Structure (SMILES) | GI50 [µM] | TGI [µM]
COc1cc(NS(C)(=O)=O)ccc1Nc1c2ccc(Cl)cc2nc2c(OC)cccc12 | 2.71 | 13.3
Cc1cc(N2CCCCC2)nc(N(CCCNc2ccnc3cc(Cl)ccc23)Cc2ccco2)n1 | 1.85 | 9.82
CCC(=O)Nc1ccc(N=Cc2cccc(Oc3ccccc3)c2)cc1 | – | > 100
CCOC(=O)Cc1nnc2c(-c3ccccc3)nc3ccccc3n12 | – | 51.4
Cc1ccc(Cl)c2c(=O)c3ccc([N+](=O)[O-])cc3sc12 | – | > 100
CCOC(=O)C12CCCC1(O)N(NC(=O)c1ccccc1)C(C)=C2C(=O)OC (stereo not drawn) | – | > 100
CCOC12OC3=C(CC1CC1=C(CCC1=O)O2)C(=O)CC3 (stereo not drawn) | – | > 100
C=CCCC(OCOCCOC)c1cc(C)c(O[Si](C)(C)C(C)(C)C)c(C)c1 (stereo not drawn) | – | 46.9
CC[C@H](C)[C@H]1NC(=O)[C@@H](N[C@](C)(O)[C@@H](N)CC(C)C)[C@@H](C)OC(=O)[C@H](Cc2ccc(OC)cc2)N(C)C(=O)[C@@H]2CCCN2C(=O)[C@H](CC(C)C)NC(=O)[C@@H](C)C(=O)[C@H](C(C)C)OC(=O)C[C@@H]1O | 0.0105 | 0.146
Cc1ccc([N+](=O)[O-])c2c(NCCNC(=O)Cn3ccnc3[N+](=O)[O-])ccnc12 | – | > 100
COc1ccc(C(=O)OCC2OC(n3cnc4c(=S)nc[nH]c43)C(OC(=O)c3ccc(OC)cc3)C2OC(=O)c2ccc(OC)cc2)cc1 (stereo not drawn) | – | > 100
CSc1c(C(=O)Nc2ccc(Cl)cc2)c(N)nn1-c1ccccc1 | – | > 100
CCOC(=O)c1c(N)nn2c1cc1cccccc12 | – | > 100
Cc1cc(C)nc(NS(=O)(=O)c2ccc(Nc3nncc(=O)n3N)cc2)n1 | – | > 100
CC(=O)OC(/C=C1/C=CC(=O)O1)COC(=O)c1ccccc1 (stereo not drawn) | – | > 31.2
CN(C)c1ccc(/C=C2/SC(=S)NC2=O)cc1 | – | > 100
COc1ccc(N2C(=O)C3c4[nH]c5ccccc5c4C4CCCCCCCCCCC4C3C2=O)cc1 (stereo not drawn) | – | > 63.2
Oc1ccc2cc(Br)ccc2c1-c1c(O)ccc2cc(Br)ccc12 | 3.31 | 14.1
COc1cc(O)c2c(O)c3c(c4c2c1[C@]1(C4)C(C)=CCCC1(C)C)[C@H](O)[C@@]1(O)CC(=O)C(C(N)=O)=C(O)[C@@]1(O)C3=O | – | 1.75
COc1cccc2c1CCc1ccccc1CC2=O | – | > 100
O=C(O)CCCCCCC[C@@H]1S[C@H]1CCCCCCO | – | > 100
COCO[C@@H]1C[C@H]2C(O)Nc3ccccc3C(=O)N2C1 (stereo partly drawn) | – | > 100
CCOc1c(Br)cc(C2C(C(=O)OC)=CN(C)C=C2C(=O)OC)cc1OC | > 100 | > 100
